# Measured values reported in ChEMBL document CHEMBL4888484, “Replenishing the malaria drug discovery pipeline: Screening and hit evaluation of the MMV Hit Generation Library 1 (HGL1) against asexual blood stage Plasmodium falciparum ,using a nano luciferase reporter read-out” (2022).
# Screen size: about 150,000 compounds; about 540 (0.36%) showed an effect of 50% or more. Some of the results follow.
# Tested on: Plasmodium falciparum
# Assay: Primary screen in NF54 nanoGlo assay, in single point, at 2uM, 72h; a lower Z score goes with more inhibition
# Type: functional, Erythrocyte
# Conditions: timepoint 72 hour
SMILES,% Inhibition [%],Z score
COCCC(=O)Nc1c(C(=O)OC)n(CCc2c[nH]c3ccccc23)c2ncc(NC3CCN(C(C)C)CC3)cc12,0,-0.01
COC(=O)c1n[nH]c2c1CN(C(=O)Nc1ccc3c(c1)OCCO3)CC2,0,0.09
C[C@@H](CNC(=O)CCC1CCCC1)NC(=O)CCC1CCCC1,11,-1.33
O=C1Nc2cc(Br)ccc2C12CC2,0,-0.03
O=C1NC2(CCCC2)C(=O)N1C[C@H](O)COc1ccc(F)cc1,-7,0.75
O=C(O)CCN1CCN(Cc2ccccc2)C2(CCCCC2)C1,13,-2.32
CC[C@H](C)NC(=O)c1cnn(-c2cc(-c3nc(C(C)C)no3)ccn2)c1C,-5,0.86
Cc1nc(COC(=O)[C@H]2CC(=O)N(c3ccccc3)C2)no1,-9,1.44
O=C(NCc1nc(C(F)(F)F)no1)N[C@H]1Cc2cncn2C1,-1,0.21
CN1CCC(CNC(=O)C2CC23CCOc2ccccc23)(N2CCOCC2)CC1 (stereo not given),2,-0.25
Nc1nccnc1C(=O)N1CC2CCCC2C1 (stereo not given),-4,0.55
CCn1nccc1C(=O)N1CC[C@H](CC(=O)NCc2ccncc2)C1,29,-4.16
O=S(=O)(Nc1c(F)cccc1F)c1ccc2c(c1)OCCO2,-7,1.07
Cc1cc(C(=O)NC[C@H](C)CO)c(C)cc1Br,-8,1.27
Cc1nonc1NS(=O)(=O)Cc1ccc(Br)cc1,3,-0.42
Cc1ccc2c(c1)nc1c3ccc4c5c(ccc(c(=O)n21)c53)C(=O)N(c1ccccc1)C4=O,3,-0.51
C=C(C)Cn1c(-c2cnccn2)nnc1N1CCC(C)(COC)CC1,3,-0.47
Cc1[nH]c(C)c(S(=O)(=O)Nc2ccccc2)c1-c1nnc(C2CC2)o1,-13,2.5
COc1cccc(C(=O)N2CCN(C(=O)CCOc3ccccc3)CC2)c1,21,-2.72
CC(C)Cc1cc(CNC(=O)c2cccc(-c3cc(N)ncn3)c2)on1,-2,0.34
Cc1ccnn1CC(=O)N1CCC[C@@]2(CCC(=O)N(CCc3c[nH]cn3)C2)C1,-6,0.88
CCc1ccccc1NC(=O)CN1CCN(C(=O)CN2CCOCC2)CC1,2,-0.19

SMILES,% Inhibition [%],Z score
CC(=O)Nc1ccc(NC(=O)Cn2c(=O)c(N(C)C(C)=O)nc3ccccc32)cc1,-8,1.22
Cc1cc(CN2CCO[C@@H](CN(C)CC(=O)O)C2)cc2cccnc12,5,-0.61
COC1(CNC(=O)[C@H]2CCc3cncn3C2)CCCCC1,-9,1.4
COc1ccc(-n2ncc(Oc3ccc4c(c3)CCC4)c(Nc3cccc(C(=O)NCc4ccc(F)cc4)c3)c2=O)cc1,2,-0.27
O=C(C[C@H]1Cc2ccccc2C2(CCN(Cc3ccccc3)CC2)O1)NC1CCCC1,10,-1.39
CCOCc1nc(-c2ccc(=O)[nH]c2)n(Cc2c(F)cccc2Cl)n1,-8,1.22
CC(C)=CCN1CCC[C@@](O)(CNC(=O)Cc2ccccc2)CC1,-10,1.65
CC(C)[C@H](CNC(=O)c1ccc(NC(=O)c2cc(F)cc(F)c2)cc1O)c1cccnc1,-13,2.09
Cc1ccc(-n2nccc2NC(=O)[C@@H]2CCCCO2)nn1,-1,0.15
Cc1cc(F)ccc1C1CCN(C(=O)c2cn(C)nn2)CC1,2,-0.27
O=C(Cc1ccc(Cl)cc1)N1CC[C@@]2(CO)CN(Cc3ccccc3)C[C@H]2C1,1,-0.08
Cc1c(NC(=O)c2ccco2)cccc1C(=O)N1CCn2cncc2C1,-7,0.94
OCCn1ncc2c1CN(c1nnc(C3CCC3)o1)C2,-21,2.06
COc1cccc(NC2=NC(N)=NC3(CCCC3)N2)c1,3,-0.66
Cc1ccc(C)c(N2CCN(C(=O)c3cc4n(n3)CCCN(Cc3cccc(F)c3)C4=O)CC2)c1,-9,1.66
CCC(CC)N(C)C(=O)c1ccc2c(c1)COCO2,2,-0.35
Cc1ccc(-c2nc3cccnc3o2)cc1NC(=O)c1cccc(Cl)c1Cl,-7,1.26
O=S(=O)(Nc1cccc2c1OCCO2)c1ccc2c(c1)OCCO2,-6,0.94
COc1ccc(N([C@H]2CCS(=O)(=O)C2)S(=O)(=O)c2c(C)cc(C)cc2C)cc1,-18,2.46
CN(C)c1ncc(Br)cc1C(=O)N(C)c1nccs1,-10,1.26
Cc1cc(NC(=O)C2CCN(c3cc(C(F)(F)F)ncn3)CC2)ccc1Br,2,-0.21
Cc1n[nH]c(CNc2cnccn2)c1C,-11,1.88

SMILES,% Inhibition [%],Z score
CCCn1ccnc1CNc1cc(CC)ncn1,-12,2.31
COc1ccc(Cn2nc(C)n(C)c2=O)cc1,-14,1.61
O=C(Cc1ccc2c(c1)OCO2)N1CC[C@H](Oc2cnc3ccccc3n2)C1,10,-1.94
Nc1cccc(C(=O)N2CCC(CNC(=O)c3ccco3)CC2)n1,-1,0.2
Cc1ncsc1CN1CCCC1CN1CCCC1CO (stereo not given),-3,0.39
O=C(c1scc2c1OCCO2)N1CCOC[C@@H](O)C1,-18,1.68
O=C(N1CC(O)C1)C1(c2cccs2)CCCCC1,1,-0.09
CCOc1cccc(Cn2nnc3c(cnn3C)c2=O)n1,-14,1.91
CC[C@@H](CO)N(CC=C(C)C)Cc1cccnc1,-22,2.05
Cc1nnc(NCc2cc(C(F)F)on2)nc1C,5,-1
CCc1ccc(-c2cc3c(=O)n(CC(=O)N4CCOCC4)ncn3n2)cc1,-23,2.03
COCCN(Cc1ccc(OC)c(OS(=O)(=O)c2ccc(OC)cc2)c1)C(=O)c1cccc(F)c1,3,-0.59
Fc1ccc([C@@H]2CCN2CCn2cc(Cl)cn2)cc1,12,-1.59
CNC(=O)NC(=O)[C@H](C)N(C)Cc1cccc(C#N)c1,-6,0.86
CN(C)c1nnc(CNS(=O)(=O)c2ccc(F)c(C(F)F)c2)[nH]1,-2,0.41
Cc1nscc1C(=O)N1CC(c2ccccc2)C2COCCC21 (stereo not given),6,-0.57
O=C(N[C@@H]1C=C[C@H](CO)C1)c1cccnc1C1CC1,5,-0.62
COc1cnccc1CNc1nc(CC(C)C)ns1,-7,1.45
CCc1cnc(C)nc1N1CCC2(CCC(=O)N([C@H]3CCN(C)C3)C2)CC1,-7,1.13
O=C(Cc1cccs1)N[C@@H](Cn1nccn1)c1ccccc1,-15,2.28
CCCNC(=O)Cn1cc2c(n1)CCN(C(=O)OC(C)(C)C)C2,-7,1.06
O=C(NCc1ccc(F)cc1)N1CCCN([C@H]2CCOC2)CC1,-8,1.43

SMILES,% Inhibition [%],Z score
Cc1ccn2c(NC(=O)C3=NN(c4ccccc4)C(=O)CC3)nnc2c1,-11,1.56
NC(=O)c1ccc(NC(=O)Cn2ccc3cc(OCc4ccccc4)ccc32)cc1,-16,2.03
CCN(C(=O)c1ccnc(N(C)C)c1)C1CC1,0,-0.03
Cn1c(=O)ccc2ccc(NC(=O)N3CCCC4(CC3)CC4)cc21,-13,1.65
C[C@@H](Cn1cncn1)c1nc(Cc2cccs2)nn1CC(C)(C)O,-8,1
COc1cc2c(cc1OC)CN(C(=O)Cn1c(C)ccc1C)CC2,-20,2.46
NC(=O)CCS(=O)(=O)CCn1cc(-c2cccc(Cl)c2)nn1,-4,0.78
Cn1nc(NC(=O)NC2CCC3CCCC3C2)cc1C1CC1 (stereo not given),-12,1.49
COc1ccc(CNC(=O)c2nc[nH]c2C(=O)NCCC(C)C)cc1,-5,0.6
CN(C)S(=O)(=O)Cc1ccc(Br)cc1F,3,-0.5
CC(C)NC(N)=NCc1c(F)c(F)cc(F)c1F,-12,1.4
O=C(Nc1ccc(Cl)cc1)c1nnc([C@H]2CCCN(C(=O)CC3CCCC3)C2)s1,-5,0.78
CCn1ccnc1CN(C)Cc1nc(-c2ccc(-c3ccccc3)cc2)oc1C,-4,0.63
COc1ccccc1Oc1cc(N2CCN(C(=O)c3ccc(C)cc3)[C@@H](C)C2)ncn1,-10,1.43
O=C(Nc1nnc(C(F)F)s1)N[C@H]1CCCC12CCCCC2,-4,0.51
CC1CCCc2ccccc2C1NC(=O)c1cn[nH]c1 (stereo not given),-13,1.66
O=C(NC(C1CCCO1)C1(CO)CCC1)c1ccc(O)c(F)c1 (stereo not given),-9,1.66
Cc1ccc2[nH]c(C3CN(C(=O)C4(c5ccccc5)CCOCC4)C3)nc2c1,-8,1.53
Cn1ccc(-c2cc(C(=O)N(C3CC3)[C@H]3CCc4ccccc43)no2)n1,-2,0.47
